Assay results published in ChEMBL document CHEMBL4888484, “Replenishing the malaria drug discovery pipeline: Screening and hit evaluation of the MMV Hit Generation Library 1 (HGL1) against asexual blood stage Plasmodium falciparum ,using a nano luciferase reporter read-out” (2022).
In all, about 150,000 compounds went through this assay and about 540 (0.36%) showed an effect of 50% or more. This is one part of the list.

The molecules below were run on Plasmodium falciparum (assay: Primary screen in NF54 nanoGlo assay, in single point, at 2uM, 72h; a lower Z score goes with more inhibition). Details: timepoint 72 hour.
Format: functional, Erythrocyte

| Structure (SMILES) | % Inhibition [%] | Z score |
| --- | --- | --- |
| c1ccc(-c2cc(CC3(NC4CCCCC4)COC3)no2)nc1 | 18 | -2.15 |
| COCCC[C@H]1CCCN(C(=O)Cc2c[nH]c(=O)[nH]c2=O)C1 | 3 | -0.47 |
| CN1C[C@@H](CNC(=O)Nc2cncc(OCC(F)(F)F)n2)CC1=O | -12 | 1.64 |
| c1cn(-c2ccc(CN3CCCC3)cc2)cn1 | -11 | 1.61 |
| CCn1nc(C)c(-c2cc(-c3ccc(CO)o3)c(C#N)c(N)n2)c1C | 3 | -0.39 |
| CCc1nnc(C)cc1C(=O)N1CCC(c2nc3ccccc3s2)CC1 | 15 | -2 |
| CNC(=O)[C@H]1CCN(c2nc(C3CCCCC3)ns2)C1 | -16 | 1.82 |
| Cc1cc(N2CCC[C@@]3(C=Cc4ccccc4O3)C2)n2ncnc2n1 | -8 | 1.36 |
| Cc1c(-c2cnn(C)c2)nc(N)c(C#N)c1[C@H]1CCOC(C)(C)C1 | -8 | 1.41 |
| CC(C)NC(=O)N1CC(C(=O)NC(C)c2ccccc2)CCC1c1ccc(F)cc1 (stereo not drawn) | -4 | 0.63 |
| CC(C)(C)c1cc(CNC(=O)c2c[nH]c(=O)c(Cl)c2)[nH]n1 | -9 | 1 |
| O=C1NC2(CCN(Cc3cccc(F)c3)CC2)N2CCCC[C@@H]12 | -9 | 1.73 |
| Nc1nnnn1CC(=O)N(Cc1ccncc1)C1CCCCC1 | -7 | 1 |
| OCCN(Cc1ccccc1OC1CC1)C1CC1 | -5 | 0.91 |
| COc1ccc(Cl)cc1C(C)NCC1CCN(S(C)(=O)=O)C1 (stereo not drawn) | 1 | -0.08 |
| CN(C)c1ccc(-c2nc(-c3nnn4c3CO[C@H](c3ccccc3Cl)C4)no2)cc1 | -2 | 0.39 |
| c1ccc(CO[C@H]2CCN(c3cc(-n4ccnc4)ncn3)C2)nc1 | 0 | 0.01 |
| CO[C@H]1CN(C)C[C@@H]1NC(=O)c1c[nH]c2c(F)cccc2c1=O | -25 | 2.23 |
| CN(CC1OCCc2sccc21)C(=O)CCC1CCCO1 (stereo not drawn) | -9 | 1.06 |
| COc1ccc(CN2C(=O)c3ccccc3C2=O)cc1C(=O)N1CC(C)OC(C)C1 (stereo not drawn) | -8 | 0.98 |
| CC1CC(C)CN(C(=O)Cc2csc(NC(=O)c3ccco3)n2)C1 (stereo not drawn) | -13 | 1.27 |
| Cc1nc2cc(C(=O)N3CCC[C@@]3(C)C(=O)O)ccc2s1 | 3 | -0.39 |
| O=C(CNCC1CCC1)Nc1c(Cl)cccc1Cl | -6 | 0.74 |
| C[C@H](N)C1(c2nc(C(C)(C)c3ccc(Cl)cc3)no2)CCOCC1 | 4 | -0.84 |
| Cc1ccc(NC(=O)CC(=N)NOC(=O)Nc2cccc(C)c2)cc1 | -1 | 0.23 |
| CCCc1cc(C(=O)OCC)nn1C1CCN(S(=O)(=O)c2ccccc2C)CC1 | -14 | 2.44 |
| Cc1ccc2c(c1)NC(=O)c1cc(S(=O)(=O)N(C)C)c(N3CCCCCC3)cc1O2 | 0 | -0.02 |

| Structure (SMILES) | % Inhibition [%] | Z score |
| --- | --- | --- |
| Cc1nc2c(cc1C(=O)Nc1cccc(Cl)c1)c(=O)[nH]c(=O)n2Cc1ccccc1 | -18 | 2.55 |
| Cc1cccc(C[C@H](C)NC(=O)CCc2cn[nH]c2)n1 | 1 | -0.14 |
| O=C(NCc1cccc(-c2nnc[nH]2)c1)NCC1CC1c1ccccc1 (stereo not drawn) | -7 | 1.22 |
| CC(C)CCNC(=O)Cn1cccc1-c1nc(-c2ccc3c(c2)OCO3)no1 | -3 | 0.33 |
| CCOc1ccccc1CCCNC(=O)c1cc(C)n2nc(C)cc2n1 | 12 | -1.63 |
| NC(Cc1ccccc1)=NOC[C@@H]1CNC(=O)C1 | -5 | 0.93 |
| O=C(NCCOCC1CC1)c1c[nH]nc1-c1ccccn1 | -3 | 0.59 |
| CCN(C(=O)CCc1c(C)[nH]c(=O)c(C#N)c1C)C1CCCC1 | -3 | 0.5 |
| CC(C)n1cnc2ccc(-c3noc(-c4ccco4)n3)cc21 | -18 | 3.1 |
| COCCN1CC2(CCC1=O)CCN(C(=O)c1cnc(C3CC3)nc1)CC2 | -17 | 2.72 |
| Cc1ccc(-c2nn(-c3ccccc3)cc2C(=O)N2CCO[C@@H](CC(=O)O)C2)o1 | -7 | 0.93 |
| Cc1cnc([C@H]2CCN(C(=O)NC(C)C)C2)n1Cc1ccccc1 | -4 | 0.59 |
| CC(C)N(CCN(C)C)C(=O)c1cnc(-c2cnn(C)c2)s1 | -3 | 0.34 |
| COc1cc(Cl)ccc1CNC(=O)N1CC(NC(=O)C2CCC2)C1 | 6 | -1.02 |
| COCC(NC(=O)N1CCCCC(N2CCCC2)C1)c1ccco1 (stereo not drawn) | 2 | -0.19 |
| O=C(O)c1ccc(C(F)(F)F)nc1C(F)(F)F | -16 | 1.61 |
| COc1ccc(NC(=O)[C@@H]2Cc3[nH]cnc3C3(CCCC3)N2)cc1Cl | -4 | 0.61 |
| CC(NCC(=O)NC(C)(C#N)C1CC1)c1cc2ccccc2s1 (stereo not drawn) | -1 | 0.11 |
| CC1CN(S(=O)(=O)CCc2ccccc2F)CC2(CCOC2C)O1 (stereo not drawn) | 4 | -0.46 |
| Cc1ccc(N(C(=O)c2ccc3c(c2)OCO3)C(=O)N2CCCCC2)cc1 | -3 | 0.51 |
| O=C1c2ccccc2C(=O)N1c1cc(-c2c[nH]c3ccccc23)n(-c2ccccc2)n1 | -6 | 0.69 |
| COc1cccc(NC(=O)c2ccccc2C(=O)Nc2cccc(OC)c2)c1 | -11 | 1.43 |
| CN(C)c1ncc(CN2C[C@H](c3cnn(C)c3)C3(CCOCC3)C2)n1C | -2 | 0.29 |
| CN(C)c1ccc(C2=Nc3ncnn3/C2=N/Cc2ccccc2)cc1 | -10 | 1.36 |
| CC(C)OC(=O)C[C@H]1CCCN(C(=O)Cc2ccc3c(c2)OCO3)C1 | -3 | 0.56 |
| CCc1nnc(-c2ccc3ccn(CC(=O)Nc4ccc5c(c4)OCO5)c3c2)o1 | -3 | 0.37 |
| CC1CCCC1Nc1nccc(C(F)(F)F)n1 (stereo not drawn) | -7 | 0.86 |
